Source: the RNAGym collection of RNA variant scans (doi:10.7554/elife.90254)
Read counts are not given, so values of variants with three or more changes are uncertain.

B1: OR4K15 (parent)
chain: GUUAACGGUCAUAGGCCAUGGAAACUAGGAGCACCAUUUCGCUGCCAGUGAAGAAAUGAACAAAGAAAAUCUGGGCCAGGCAGGCAUCAAAAGAAAUAGUCUUGCGCUCAACCAGAAAGUCUGUAAUCAUUUUAAGGGUA

Variants of: B1
Assay: self-cleavage, relative activity (ratio to wild type); higher = more cleavage; in vitro, sequencing; the parent is a self-cleaving ribozyme

Variant | self-cleavage
A51G A117G U122C | 1.6
A51U A59U A91G U97A A117U | 1.03
G50A A67U A69G A96G U102C | 1.41
U49C A90G U130C | 0.55
A52G A64G U102A A117G | 1
A47U C77U U100C A111G | 0
U49C A117G U139C | 0.83
A51G A82G A111G | 0.05
A47U A67G A92G A126G | 0.21
A51U U122C U127C | 0.78
U49C A55G G115A | 0
U49C A82U A90G A116G | 0.04
U49C A96G A116G | 0.46
U49C U57C A66G | 0.78
A52G A64G A134G | 1.81
A51U A52G A69G A78G | 0.13
A52G A68G A89G | 1.69
A51G A54G A94G | 0.8
A51G A96U A135G | 2.29
A51U A54G A64G | 0.7
A51U A68G U103A A110G | 0.04
U49A A55G U100C | 2.16
A52G A55U A67G | 1.74
U49C A67G U102A A118G U130G U139C | 0.25

Variant | self-cleavage
U49C A54G A68G | 1.41
U49G A52G U124C | 0.32
A47U A56G A63U A116G | 0.35
U49C A111G U133C | 0.01
U49A U70C U108A | 0.01
A47U A51G A98C | 0.58
U49C A67G A82G U122G | 0.45
A52G A56G A68G A90G U103C U131C | 0.46
U49A A60G A96G A118G | 1.05
U49G A55U A86G A118G A126G | 0.22
A51U A96G C112G A140G | 0.01
A51U A60G U122G | 1.97
A51G A95U A111G U132C | 0
A47U G83A A86U G137U A140U | 1.88
U49C A67G A96G A129U | 0.64
A47U A52G A129G | 0.16
U49C A82G A91G A92G A111G | 0.01
U49A U57A A59U A86U | 1.02
U49A A56G A60G U102C | 1.23
A51G A54G G73A U97A | 0.17
A51U U97A A98G | 1.69
U49A U57A A118G | 0.42
A51U A82G A89G | 0.85
U49C A52U A96G U102A | 1.33

Variant | self-cleavage
U49A A52G A78U | 0.23
A47U A117G U130C | 0.2
U49C U70C A140G | 0.92
A51U U108G A140G | 0.01
A51G A67G A86U A92G U103C A111G | 0.03
A51G A96G A118U | 0.25
A51G U120C U122C | 1.04
A51G A67G A116G | 0.52
A51G A60G A114G | 0.59
A51G A69G G104A A114G | 0
A51G A59G A118G | 0.64
U49C A55U U108G A118U | 0.01
A51G A69U A94G A96U | 0.82
G48A A86G A116G | 0.17
A51U U122G A134G | 2.11
A47U A59G A69G | 0.47
A51G A59G U102C C128U | 1.38
A51G A59G A67G G79A | 0.16
A51G A92G U122C | 1.16
G48A A54C A62G A110G A126U | 0.06
A51G A67G U70C | 0.6
A52G A59U U70C | 0.61
A52G A59G A134G | 1.07
A52G A60G A118G A129G | 0.66

Variant | self-cleavage
A51G A110C A117G U127C | 0.27
U49A A94G A96C | 0.35
U49C U122C A135G | 1.16
A51G A82U A117G | 0.28
U49C U108C A118G | 0
U49C A51G U72C A116G A129G | 0.01
A51G U122C A129U | 1.21
A52G A55G A125G | 0.27
A51G A62G U108A U132C | 0
A51G A69G A94G | 0.72
A51G A91G A134G U139C | 1.24
A47U A63G A89G | 0.68
U49C A67G A125G A126G U132A | 0.17
A51G A63G U100C U133C | 2.35
A47U U49A U120C | 0.25
A52G A59G A63G U122C | 0.97
A51G A56G A96G U122A U132A | 1.13
U49C A92G A96U U97A | 1.58
A51G A56G U132C | 1.67
A52G A59G U124C | 1.13
A52G A60G U130C | 0.65
U49C A52G A96U U133C | 1.92
U49C A90U A95G U108C | 0
A52G A62G U127C | 0.81

Variant | self-cleavage
A52G A55U A64G A117G U122A U131A | 2.05
U49C G73A G84C A96G | 0.12
A51G A82G A89G A111G | 0.04
A51G A96G U103G | 0.05
A51U A56G A82U A140G | 0.29
A51G A67G A68G U87A U132C | 1.65
U49C U124C U139C | 0.56
A51U A56G A67G | 1.02
A47U A54G A63G A110G U127C | 0.05
U49C A96G U103C U122C | 0.52
A51G U87C U108C A118G | 0.01
A51U A111G U130C | 0.03
A52G A62G A116G | 0.66
U49A U72G A91U | 0.33
A51U A56G A62G A114G | 0.25
A47U A92G A96G A135G | 0.97
U49G A67G U131C | 1.3
A51G A55G U131C A134G | 1.69
A51G A64G U97A U122C | 1.82
A51G A89G U122C | 0.42
A47U A69G A91G U102C | 2.16
A51G U70C A117G U122C | 1.13
A51G A59G A78G | 0.27
A52G A54U A60G A95G A126G | 0.27

Variant | self-cleavage
A47U A69G A117G | 0.59
U49A A63G A67G U72C | 0.15
G50U A54U A92G U100C A110U | 2.51
U49C A96G U102G | 0.65
A51G G58A A129G | 1.24
U49C U57A A68G | 0.37
A52G A66U U72C G80A | 0.16
A51G U100C U122C U130C A140G | 2.79
A52G A59G A91G A118G | 0.49
U49C A60G A66G A95G | 1.1
U49C A78U U102C U127C | 0.35
A51U A78C A118G U127G | 0
A47U A94G A118G U133C | 0.68
A47U A51G A96G A117G | 0.44
A51G A90G A117G | 0.99
A51G A66G U127C | 1.33
A52G A68G A86G U108C | 0.03
A51U A78U A94G | 0.36
A51G A62G A68G | 0.65
A51U A55G U130C | 0.09
A51U A63G A111U | 0.09
A51G A54G A126G | 0.73
A51U A63G A64C U132C | 0.07
A51G G106A A129C | 0.03

Variant | self-cleavage
U49C U102C A129G | 1.15
U49C U100G U127A | 2.03
U49C G53C A54G A78U | 0.24
A51C A60G A69G C105U | 0.14
U49C A69G A86G | 1.02
A51G A98G U133C | 0.88
A51U A59G A96G A118G | 0.83
U49C A67G A95G | 1.79
G48A C101U U103C | 0.12
A51G U70A A114U U124C | 0.03
G50U A51G A86G | 1.76
G50A A82U A89U A90G A94U A111G | 0.01
A51G A54G A56U A68G A116G | 1.13
A51G A63G A66G A129G U132A | 0.7
U49A A63G A140G | 1.49
A52G A66G U103A | 1.5
G50C A94G A110G | 0
A52G A66U A111G U120C | 0.01
U49C U102C U120C | 1.32
A52G A55G A90G A91G A110G | 0.07
G48A A118C A134U A140G | 0.76
A52G A62G U103C A140G | 1.33
A51G A54G G75A | 0.16
